The subject of one experiment is HBVWT^C2. Nature of the experiment: microbe, parasite or virus in culture. Type of experiment: cell-based. As to conditions: Hepatitis B virus.
Experiment [1] relates to HBVETV-R^L180M/S202G/M204V. Nature of the experiment: microbe, parasite or virus in culture. It is filed as cell-based. As to conditions: Hepatitis B virus.
The test system of a further experiment is HBVADV-R^A181T/N236T. Nature of the experiment: microbe, parasite or virus in culture. Type of experiment: cell-based. As to conditions: Hepatitis B virus.
The subject of experiment [2] is HBVETV-R^L180M/S202G/M204V. It is filed as in vivo, PXB-mice. As to conditions: 0.2 mg/kg/day, end of two-week administration.
Where [3] appears, read: Huh-7, read-out: IC50^SB_cell (average).
The mark [4] stands for this setting: Huh-7, read-out: IC50^SB_cell (representative image).

Values joined by “and” are separate entries in the source; they are usually repeats but may differ in a detail not shown here. Equal entries are not always repeated. Where two headings read alike, the source gives them in different places.

On to `C=C1[C@H](CO)[C@@H](O)C[C@@H]1n1cnc2c(=O)[nH]c(N)nc21` [ETV, entecavir], for which the IC50 was 16 nM in the experiment on HBVWT^C2 (setting [3]), 7 nM in the experiment on HBVWT^C2 (setting [4]), 53100 nM in experiment [1] (setting [4]) and 184 nM in the experiment with HBVADV-R^A181T/N236T (setting [4]).

For the molecule `N#C[C@]1(CO)/C(=C\F)[C@@H](n2cnc3c(=O)[nH]c(N)nc32)C[C@@H]1O` [E-CFCP], the 50% inhibitory concentration (IC50) was determined as 0.7 nM in the experiment on HBVWT^C2 (setting [3]); 0.2 nM with HBVWT^C2 (setting [4]); 77.5 nM in experiment [1] (setting [3]); 57.2 nM in experiment [1] (setting [4]); 14.1 nM in the experiment on HBVADV-R^A181T/N236T (setting [3]); 6.2 nM with HBVADV-R^A181T/N236T (setting [4]). Further, the “reduction of serum HBVETV-R^L180M/S202G/M204V-DNA copy numbers” value in experiment [2] is 2 log and 1.84±0.09 log.

For the molecule `N#C[C@]1(CO)/C(=C/F)[C@@H](n2cnc3c(=O)[nH]c(N)nc32)C[C@@H]1O` [Z-CFCP], the IC50 with HBVWT^C2 (setting [3]) is 938 nM.

Consider `CC(C)OC(=O)[C@H](C)N[P@](=O)(CO[C@H](C)Cn1cnc2c(N)ncnc21)Oc1ccccc1` [TAF, tenofovir alafenamide], for which the IC50 with HBVWT^C2 (setting [3]) was found to be 37 nM; in the experiment on HBVWT^C2 (setting [4]), 25 nM; in experiment [1] (setting [3]) it was 56 nM; in experiment [1] (setting [4]), 53.7 nM; with HBVADV-R^A181T/N236T (setting [4]), 86.5 nM.
